# Read counts are not given, so values of variants with three or more changes are uncertain.
# B1: CPEB3 Ribozyme (parent)
# chain: UAACAGGGGGCCACAGCAGAAGCGUUCACGUCGCAGCCCCUGUCAGAUUCUGGUGAAUCUGCGAAUUCUGCUGUAUAUCUC
# Variants of: B1
# Experiment: self-cleavage, relative activity (ratio to wild type); higher = more cleavage; in vitro, sequencing
# How it was run: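 After error-prone PCR and barcoding, CPEB3 ribozyme mutant libraries were transcribed with T7 RNA polymerase at 37°C for 5 hours, then given 15 min with DNase I before an EDTA stop, and they cleaved during both steps. Reverse transcription with template switching preceded Illumina sequencing. Relative activity divides a variant's cleaved/total read fraction by the unmutated ribozyme's. At least 5 reads were required per variant, and three batches were averaged.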
row,Variant,self-cleavage
1,U26C A35G U41C A47G G61A,0.31
2,U26C C39U A47G U74G,0.53
3,A28C A57G U58A,0.18
4,U26C A45G A57U C68G,0.11
5,C27G U49C U51C A65G,0.13
6,U26C G55A U72A U74A,0.26
7,U26C U41C U49C,0.15
8,U26C A28U G42U A56U,0.21
9,A28G A35G C37A C39U A47G U67C U72A,0.06
10,U26C A35G U67A U72A C81A,0.68
11,U26C G36A A75C,0.18
12,U26A U48A U51C,0.19
13,U26C C62U A65G,0.28
14,C27A U31C A65G,0.18
15,U26C A28G U60C U66C U69C,0.09
16,A28G A65U U67C U69A,0.45
17,U26C C29U U31A U49C A56G G70A,0.05
18,U26C U41C U49C U74C,0.33
19,U26C U41C A47U U54C A75G U80C,0.1
20,U26A U60C U72C U78C,0.15
21,U26C U54C A56U U66A,0.33

row,Variant,self-cleavage
1,A28C U72A U76A,0.38
2,U26C G33C U41C C44A C62G U69A,0.06
3,U26A U41A U67C,0.14
4,U26C C32U U67C,0.11
5,A28G A45G U72C U80A,0.63
6,U26C C37U U43C A45U U48C U51G,0.05
7,C27A U41A U72C,0.12
8,A28G A45U C62A,0.1
9,U26C C37U U49C,0.2
10,C27U U54A U78A,0.24
11,A28G A35U A64U,0.07
12,U26A U54A U78C,0.87
13,U26C U41A G61U A65U U72C U76C,0.05
14,U26C A57G C59A U72C,0.12
15,U26C U60G A64G,0.12
16,U26C U49C U60C A65G,0.11
17,U26C U41G U72C,0.56
18,C27U A45G U51A U54A U67C U74C,0.07
19,U26C U51C U76C,0.52
20,U26C A56G C62A U69G,0.08
21,U26C A47U U48C U67C U76C,0.07

row,Variant,self-cleavage
1,U26A U60A U76C U78C,0.41
2,U26C A65G U69C U72A,0.08
3,U26C U31A U49A,0.13
4,A28G A35U U43C U54C U78A,0.15
5,A28G C37U U48C A56G,0.09
6,A28G A47C U51A U54C,0.24
7,A28G C34G U48C U54C,0.24
8,U26C A28G A56G,0.18
9,U26C A35G C38U G52A,1.1
10,U26A G63A U67C,0.25
11,U26A G63A U67A,0.29
12,A28G A35G U43A U69C,0.64
13,U26C U48C A56G U80C,0.13
14,A28G A57U C62G C79U,0.09
15,U26C A28C C71U A75G,0.16
16,U26C U72A U80C,0.6
17,U26C U41C G55U G61A,0.2
18,U26C C39A U54G U72A,0.2
19,C27G U58C A64G U69A A75U,0.07
20,A28G A35G U41A A45G A56U,0.27
21,U26C C71U A75G,0.27

row,Variant,self-cleavage
1,U26A U41C A56U U60C U78C,0.16
2,A28G A35U G61A,0.11
3,U26C A47G U49C,0.17
4,U26C G33C G53U A75G,0.17
5,U26G A65U U69A,0.32
6,A28G C38U U43C A56G U76G A77C,0.04
7,U26C U41C A56G,0.47
8,U26A U69A A75U,0.4
9,C27U U43G U49C A56G U74A A75G,0.08
10,U26G A28U U76A,0.18
11,C27U A35G A77G,0.3
12,A28G A35U U41A,0.3
13,A28G A45U U49C,0.14
14,U26A U31A U41C A47C U48C U80A,0.05
15,A28G C34A U60A A65G,0.07
16,U26C U43A U54C U66C,0.16
17,A28G A35G A65C U67C,0.32
18,U26C A35G U43A A45G U54A U58C,0.18
19,A28G A64U U67A U78C,0.13
20,A28G A35U C39U C44U,0.11
21,U26C C37A U54C,0.42
